Measurements as given in US20040152871A1 (ST MARIANNA UNIVERSITY SCHOOL OF MEDICINE, published 2004).

Molecular target: T1, [35S]-labeled HA-Synoviolin-HAHA fusion protein (human, UniProt Q86TM6, [35S]-labeled by in vitro translation)
T1 construct: Made by in vitro translation (TNT-coupled Translation System) from pcDNA3-HA-synoviolin-HAHA and used as probe; also called [35S]HA-Synoviolin-HAHA; not shown: influenza hemagglutinin (HA)-tag, one copy at the N-terminus; two molecules of influenza hemagglutinin (HA)-tag at the C-terminus
Assay: far-western: GST on nylon membrane, probed with [35S]HA-Synoviolin-HAHA

T1 sequence (Q86TM6 whole entry E545G, the tested form may be a part): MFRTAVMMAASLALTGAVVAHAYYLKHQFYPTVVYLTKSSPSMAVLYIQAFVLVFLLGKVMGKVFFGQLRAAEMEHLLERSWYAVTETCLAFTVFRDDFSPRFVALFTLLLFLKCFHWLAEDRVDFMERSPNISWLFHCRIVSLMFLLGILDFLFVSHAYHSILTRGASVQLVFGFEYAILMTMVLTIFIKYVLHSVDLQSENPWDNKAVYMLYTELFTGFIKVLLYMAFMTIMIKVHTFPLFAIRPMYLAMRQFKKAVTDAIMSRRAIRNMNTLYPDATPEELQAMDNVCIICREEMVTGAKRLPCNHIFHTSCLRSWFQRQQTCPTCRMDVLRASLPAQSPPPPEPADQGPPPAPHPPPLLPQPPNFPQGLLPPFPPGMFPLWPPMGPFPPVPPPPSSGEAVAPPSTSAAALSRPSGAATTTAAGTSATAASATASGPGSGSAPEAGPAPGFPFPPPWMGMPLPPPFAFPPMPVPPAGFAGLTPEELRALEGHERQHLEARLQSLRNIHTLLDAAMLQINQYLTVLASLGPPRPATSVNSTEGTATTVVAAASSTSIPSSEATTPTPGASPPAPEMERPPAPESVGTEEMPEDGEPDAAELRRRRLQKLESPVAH

binding result: no binding (tested: GST (1 µg))
B1: GST (other)
chain: not shown
notes: also called glutathione S-transferase
